The list shows a part of the results. These are noisy estimates, calculated here from bound and input reads.
The sequences below were run against T1, Pho4 (S. cerevisiae) (UniProt P07270) (assay: relative binding free energy (BET-seq); higher = weaker binding). Settings: reference: library average.
T1 sequence: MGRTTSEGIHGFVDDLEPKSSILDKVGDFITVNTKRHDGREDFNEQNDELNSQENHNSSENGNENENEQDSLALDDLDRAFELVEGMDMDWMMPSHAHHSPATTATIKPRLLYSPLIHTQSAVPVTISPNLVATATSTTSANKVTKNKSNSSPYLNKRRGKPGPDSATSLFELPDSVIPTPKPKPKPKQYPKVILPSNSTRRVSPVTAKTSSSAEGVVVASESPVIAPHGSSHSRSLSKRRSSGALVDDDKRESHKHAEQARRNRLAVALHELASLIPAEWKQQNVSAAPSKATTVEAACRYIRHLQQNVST
AGACTCACGTGTATTT was tested, and the “relative binding free energy” value was 0.24 kcal/mol. In the case of ATGTACACGTGTGTTG, the “relative binding free energy” value is reported as -0.04 kcal/mol. In the case of GGTCGCACGTGTACGT, the “relative binding free energy” value is reported as 0.22 kcal/mol. For AATGGCACGTGGGCGC, the “relative binding free energy” value was -0.16 kcal/mol. TCTGACACGTGAGGTG was tested, and the “relative binding free energy” value was 0.33 kcal/mol. In the case of ACTTCCACGTGTGGGG, the “relative binding free energy” value is reported as 0.18 kcal/mol. For GGGGTCACGTGTTCTG, the “relative binding free energy” value was 0.13 kcal/mol. With GAGTTCACGTGCGAGG the “relative binding free energy” value was 0.33 kcal/mol. For TGGTTCACGTGACTAG, the “relative binding free energy” value was 0.3 kcal/mol. With TATGACACGTGGTTTG the “relative binding free energy” value was -0.07 kcal/mol. With TGTAACACGTGGGAAA the “relative binding free energy” value was 0.07 kcal/mol. For TATTTCACGTGCTTTG, the “relative binding free energy” value was 0.2 kcal/mol. In the case of TGATTCACGTGATTCT, the “relative binding free energy” value is reported as 0.24 kcal/mol. In the case of GTTGTCACGTGCGAAG, the “relative binding free energy” value is reported as 0.11 kcal/mol. In the case of AGGGGCACGTGGTTGC, the “relative binding free energy” value is reported as -0.18 kcal/mol. TAGTGCACGTGGAAGA was tested, and the “relative binding free energy” value was 0.07 kcal/mol. For ACATTCACGTGAGTAG, the “relative binding free energy” value was 0.46 kcal/mol. In the case of TGTCACACGTGGGATG, the “relative binding free energy” value is reported as 0.06 kcal/mol. TGATTCACGTGGGCGT was tested, and the “relative binding free energy” value was 0.11 kcal/mol. In the case of AATTTCACGTGCAGTG, the “relative binding free energy” value is reported as 0.12 kcal/mol. In the case of AGATTCACGTGGGTCA, the “relative binding free energy” value is reported as 0.21 kcal/mol. GGAGACACGTGTATGT was tested, and the “relative binding free energy” value was -0.01 kcal/mol. For TTTGGCACGTGCGCGG, the “relative binding free energy” value was -0.32 kcal/mol. In the case of AATTTCACGTGGTGAT, the “relative binding free energy” value is reported as 0.24 kcal/mol. For AGTTTCACGTGGCGTC, the “relative binding free energy” value was 0.21 kcal/mol. TGGGACACGTGGCATT was tested, and the “relative binding free energy” value was 0.08 kcal/mol. In the case of TGACGCACGTGGGAGG, the “relative binding free energy” value is reported as -0.26 kcal/mol. For AATTACACGTGAAGTG, the “relative binding free energy” value was 0.18 kcal/mol. CATGTCACGTGAGGAT was tested, and the “relative binding free energy” value was 0.2 kcal/mol. In the case of CCAGGCACGTGGTTGG, the “relative binding free energy” value is reported as -0.21 kcal/mol. In the case of TATGTCACGTGTGTCC, the “relative binding free energy” value is reported as 0.3 kcal/mol. In the case of TGAGGCACGTGAATGT, the “relative binding free energy” value is reported as 0.1 kcal/mol. For GGCAGCACGTGAGGCG, the “relative binding free energy” value was 0.11 kcal/mol. For GGTGGCACGTGCGCGT, the “relative binding free energy” value was -0.25 kcal/mol. For CTTAGCACGTGGTGAG, the “relative binding free energy” value was 0.1 kcal/mol. With CTATTCACGTGGGGTT the “relative binding free energy” value was 0.02 kcal/mol. With TGTTTCACGTGGTGAG the “relative binding free energy” value was 0.25 kcal/mol. With TTTGACACGTGGGGGG the “relative binding free energy” value was -0.07 kcal/mol. CGCGGCACGTGGGTAA was tested, and the “relative binding free energy” value was -0.07 kcal/mol. In the case of CTGGGCACGTGATGGG, the “relative binding free energy” value is reported as -0.08 kcal/mol. With TTGATCACGTGTTGCA the “relative binding free energy” value was 0.13 kcal/mol. AATTTCACGTGCCGGT was tested, and the “relative binding free energy” value was 0.35 kcal/mol. TGGTGCACGTGTCCGG was tested, and the “relative binding free energy” value was -0.05 kcal/mol. In the case of TTTTACACGTGTTCTA, the “relative binding free energy” value is reported as 0.14 kcal/mol. For TGGAGCACGTGTTCTG, the “relative binding free energy” value was -0.07 kcal/mol. For AGGTCCACGTGGAGGG, the “relative binding free energy” value was -0.04 kcal/mol. With TTCGTCACGTGTGAGA the “relative binding free energy” value was 0.05 kcal/mol. TCCATCACGTGGTGGT was tested, and the “relative binding free energy” value was 0.14 kcal/mol. For TGTGGCACGTGCCAGG, the “relative binding free energy” value was -0.22 kcal/mol. With CTTATCACGTGCTGGT the “relative binding free energy” value was 0.13 kcal/mol. For TGTGGCACGTGGATGG, the “relative binding free energy” value was -0.01 kcal/mol. With TATTCCACGTGAGTTA the “relative binding free energy” value was 0.26 kcal/mol. For CTAGGCACGTGTTGAG, the “relative binding free energy” value was -0.11 kcal/mol. ATGCCCACGTGGGGGT was tested, and the “relative binding free energy” value was -0.34 kcal/mol. With TTGCTCACGTGCATTA the “relative binding free energy” value was 0.35 kcal/mol. For AAGGCCACGTGGTTTA, the “relative binding free energy” value was -0.02 kcal/mol. GCGGGCACGTGTATGT was tested, and the “relative binding free energy” value was 0 kcal/mol. For TATTTCACGTGGTGGT, the “relative binding free energy” value was 0.21 kcal/mol. With GGAGACACGTGGGAAG the “relative binding free energy” value was -0.02 kcal/mol. TGATTCACGTGGATAT was tested, and the “relative binding free energy” value was 0.33 kcal/mol. With TAGGGCACGTGAAAAG the “relative binding free energy” value was 0.02 kcal/mol. In the case of TGCAACACGTGTTAGG, the “relative binding free energy” value is reported as 0.04 kcal/mol. In the case of GTGGTCACGTGGTGAA, the “relative binding free energy” value is reported as 0.08 kcal/mol. ATCTGCACGTGAGTGA was tested, and the “relative binding free energy” value was 0.19 kcal/mol. With TGTGGCACGTGTGCGG the “relative binding free energy” value was -0.09 kcal/mol. GTCTGCACGTGTTCGG was tested, and the “relative binding free energy” value was -0.08 kcal/mol. GGTGGCACGTGTGAAC was tested, and the “relative binding free energy” value was -0.02 kcal/mol. With AGTATCACGTGGGAAG the “relative binding free energy” value was 0.09 kcal/mol. TTGGTCACGTGGTAGA was tested, and the “relative binding free energy” value was 0.15 kcal/mol. TTTGACACGTGAGCTG was tested, and the “relative binding free energy” value was 0.16 kcal/mol. In the case of TTGAGCACGTGTTGTC, the “relative binding free energy” value is reported as -0.03 kcal/mol. With TGGCTCACGTGAATTT the “relative binding free energy” value was 0.29 kcal/mol. GTCTACACGTGGTTAG was tested, and the “relative binding free energy” value was 0.09 kcal/mol. For TGTTACACGTGCTGTC, the “relative binding free energy” value was 0.25 kcal/mol. For TTAAGCACGTGAGTTC, the “relative binding free energy” value was 0.24 kcal/mol. With GCAGGCACGTGAGGTT the “relative binding free energy” value was 0.02 kcal/mol. TTGTGCACGTGTGTGA was tested, and the “relative binding free energy” value was 0.02 kcal/mol. In the case of AGGGGCACGTGGTTGT, the “relative binding free energy” value is reported as -0.14 kcal/mol. In the case of ACAGGCACGTGGCGTT, the “relative binding free energy” value is reported as -0.13 kcal/mol. In the case of GTCTTCACGTGGAGGT, the “relative binding free energy” value is reported as 0.25 kcal/mol. In the case of GTGACCACGTGAAGTG, the “relative binding free energy” value is reported as 0.29 kcal/mol. For GATTGCACGTGGCGGC, the “relative binding free energy” value was 0.04 kcal/mol. In the case of ATGTCCACGTGTGTTG, the “relative binding free energy” value is reported as 0.03 kcal/mol. TAAATCACGTGGGGAT was tested, and the “relative binding free energy” value was 0 kcal/mol. For TCTTGCACGTGTTTAT, the “relative binding free energy” value was 0.22 kcal/mol. With CAGTTCACGTGTGGGC the “relative binding free energy” value was 0.23 kcal/mol. For GGAGTCACGTGCGTGC, the “relative binding free energy” value was 0 kcal/mol. With AGGGACACGTGCGCGT the “relative binding free energy” value was -0.14 kcal/mol. With TATTGCACGTGTTTGT the “relative binding free energy” value was 0.09 kcal/mol. In the case of AAGTGCACGTGAATTT, the “relative binding free energy” value is reported as 0.2 kcal/mol. In the case of ATCAGCACGTGTGGGA, the “relative binding free energy” value is reported as -0.15 kcal/mol. In the case of AAGAGCACGTGAGATG, the “relative binding free energy” value is reported as 0.15 kcal/mol. AATTTCACGTGATACT was tested, and the “relative binding free energy” value was 0.32 kcal/mol. With GTGAGCACGTGTGTTA the “relative binding free energy” value was -0.04 kcal/mol. TTTGGCACGTGACGTA was tested, and the “relative binding free energy” value was -0.04 kcal/mol. In the case of AAGCGCACGTGGATTG, the “relative binding free energy” value is reported as -0.06 kcal/mol. For GAAGGCACGTGGGTCA, the “relative binding free energy” value was -0.14 kcal/mol. For TTTTGCACGTGTAGTA, the “relative binding free energy” value was 0.13 kcal/mol. ATTTACACGTGTGGGC was tested, and the “relative binding free energy” value was 0.17 kcal/mol. In the case of GGGGTCACGTGTTTTA, the “relative binding free energy” value is reported as 0.23 kcal/mol. For ACAGCCACGTGGGGGG, the “relative binding free energy” value was -0.28 kcal/mol. In the case of GTATGCACGTGAGGGG, the “relative binding free energy” value is reported as 0.2 kcal/mol. ATGTGCACGTGCCGTT was tested, and the “relative binding free energy” value was -0.18 kcal/mol. In the case of TGGAGCACGTGGAGGG, the “relative binding free energy” value is reported as -0.12 kcal/mol. With CAATGCACGTGATGTG the “relative binding free energy” value was 0.06 kcal/mol. For ATCGTCACGTGAATTG, the “relative binding free energy” value was 0.28 kcal/mol. TGGAGCACGTGGATTG was tested, and the “relative binding free energy” value was 0.01 kcal/mol. GGGTCCACGTGGTGTG was tested, and the “relative binding free energy” value was -0.11 kcal/mol. In the case of GGTCGCACGTGCATGG, the “relative binding free energy” value is reported as -0.07 kcal/mol. For GGGCACACGTGTCAGG, the “relative binding free energy” value was 0.12 kcal/mol. With TAGTCCACGTGATGGT the “relative binding free energy” value was 0.19 kcal/mol. For TTTCGCACGTGGTTGA, the “relative binding free energy” value was -0.06 kcal/mol. For TACGGCACGTGGGCTG, the “relative binding free energy” value was -0.19 kcal/mol. For TGGTACACGTGATTGG, the “relative binding free energy” value was 0.26 kcal/mol. For TGTTACACGTGATGAG, the “relative binding free energy” value was 0.1 kcal/mol.

Reference: the BET-seq Pho4 binding data (Le et al. 2018)
